Assay results published in PMC11995724, “Antibiotic target discovery by integrated phenotypic and activity-based profiling of electrophilic fragments” (Cell chemical biology, 2025).
Among all 3,200 compounds or so, about 75 (2%) showed an effect of 50% or more. The list shows a part of the results.

test system: T1, S. aureus MSSA476; design: species or system S. aureus MSSA476 (TSB) or V. cholerae SAD30 (LB); 384-well bacterial growth screen at 25 uM, OD600 relative to DMSO control; conditions: relative growth, OD600, TSB; 25 µM; inhibitor
T1 construct: MSSA476

First: CCC1CN(CCn2cccn2)CCN1C(=O)C(C)Cl (stereo not shown) [7-F07, 2-chloro-1-{2-ethyl-4-[2-(1H-pyrazol-1-yl)ethyl]piperazin-1-yl}propan-1-one]
Second: CCc1ccc(CC)c(C(=O)CCl)c1 [10-H14, 2-chloro-1-(2,5-diethylphenyl)ethan-1-one]
The “% of control remaining” value of the first is lower: 114.6% for the first, 125.625% for the second.

Going from `N#CC(=Cc1ccc(-c2cccc([N+](=O)[O-])c2)o1)C(=O)N1CCOCC1` [8-C07, 2-(morpholine-4-carbonyl)-3-[5-(3-nitrophenyl)furan-2-yl]prop-2-enenitrile] to `Cc1ccc(C)c(NC(=O)C(C#N)=Cc2ccc3c(c2)OCCO3)c1` [8-L11, 2-cyano-3-(2,3-dihydro-1,4-benzodioxin-6-yl)-N-(2,5-dimethylphenyl)prop-2-enamide], the “% of control remaining” value falls from 112.863% to 108.216%.

Going from `NS(=O)(=O)c1ccc(CNC(=O)CCl)cc1` [4-P12, 2-chloro-N-[(4-sulfamoylphenyl)methyl]acetamide] to `Cc1ccc(NC(=O)CCl)cc1S(=O)(=O)N(C)C` [4-A09, 2-chloro-N-[3-(dimethylsulfamoyl)-4-methylphenyl]acetamide], the “% of control remaining” value falls from 97.1891% to 89.5665%.

Compared with `Cc1cc(C=C(C#N)C(=O)Nc2nccs2)ccc1-n1cncn1` [9-J14, 2-cyano-3-[3-methyl-4-(1H-1,2,4-triazol-1-yl)phenyl]-N-(1,3-thiazol-2-yl)prop-2-enamide], `C=CC(=O)Nc1cccc2ccccc12` [1-G10, N-(naphthalen-1-yl)prop-2-enamide] is lower in “% of control remaining” value: 105.169% for the first, 100.923% for the second.

Compared with `C=CC(=O)NCC1(c2nc(-c3ccccc3)cs2)CCOCC1` [2-A11, N-{[4-(4-phenyl-1,3-thiazol-2-yl)oxan-4-yl]methyl}prop-2-enamide], `CC(Cl)C(=O)NCc1nc(-c2cccc(C#N)c2)c[nH]1` (stereo not shown) [6-F09, 2-chloro-N-{[4-(3-cyanophenyl)-1H-imidazol-2-yl]methyl}propanamide] is lower in “% of control remaining” value: 120.453% for the first, 86.7317% for the second.

First: Cn1cc(NC(=O)CCl)c(C(=O)NC2CCC2)n1 [5-A22, 4-(2-chloroacetamido)-N-cyclobutyl-1-methyl-1H-pyrazole-3-carboxamide]
Second: CC(C)N(Cc1ccccc1)C(=O)CCl [5-J20, N-benzyl-2-chloro-N-(propan-2-yl)acetamide]
The “% of control remaining” value of the first is higher: 108.561% for the first, 88.5246% for the second.

In the case of `O=C(CCl)N(Cc1ccc(Cl)c([N+](=O)[O-])c1)c1ccccc1` [6-H06, 2-chloro-N-[(4-chloro-3-nitrophenyl)methyl]-N-phenylacetamide], the “% of control remaining” value was 8.195%.
